# According to PubChem BioAssay AID1345082 (National Center for Advancing Translational Sciences (NCATS), 2018):
# Values joined by “and” are separate entries in the source; they are usually repeats but may differ in a detail not shown here. Equal values may be shown once. The whole screen tested about 94,000 compounds, of which about 4,000 (4.3%) were called active. Inconclusive results, whose numbers are uncertain, are shown with a selection of clear calls. The call rests on the fitted dose curve; in most records, active means well fitted inhibition curve with a large enough effect; inconclusive means small, poorly fitted or top-dose-only effect; inactive means no such curve, though single readings can be large or run the other way. Potencies beside an inconclusive call are fits to weak or partial responses and may not hold up.
# Assay: Cytotoxic Profiling in NIH 3T3 Cell Line of Diverse Libraries Using Quantitative High-Throughput Screening; further: nearly all actives have a fitted effect of over 55% in size
# Details: NIH 3T3 viability, CellTiter-Glo ATP luminescence, 48-72 h; series mostly up to 96.7 µM
# How it was run: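 Viability of NIH 3T3 cells after 48 or 72 hr compound treatment at 37 °C was assessed by CellTiter-Glo, with luminescence imaged following a 10 min room-temperature step.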
# Potency means the concentration at half of the fitted maximal effect; tags describe the fitted curve by direction and shape.
row,SMILES,Potency
1,Cc1noc(C)c1[S+](=O)([O-])N1CCn2c(nnc2-c2ccccc2)C1,inactive
2,CN(CC(=O)NCCc1noc(-c2cccnc2)n1)S(=O)(=O)c1cccs1,inactive
3,O=C(c1ccncc1)N1CCCC(CCc2ccc(F)cc2)C1 (stereo not drawn),"inconclusive: 28.2 µM [inhibitor, full curve]"
4,c1ccc(CN2CCC(Oc3cnc4c(ccn4-c4cncnc4)c3)CC2)cc1,"inconclusive: 89.1 µM [inhibitor, partial curve, poor fit]"
5,COc1cccc(CCC(=O)N2CCCC(c3nnnn3-c3ccccc3)C2)c1 (stereo not drawn),"inconclusive: 79.4 µM [inhibitor, partial curve, poor fit]"
6,COc1ccc(-c2ccc3ncc(Nc4ccc(CCO)cc4)n3n2)cn1,"inconclusive: 50.1 µM [inhibitor, partial curve, poor fit]"
7,O=C(c1ccc(F)c(F)c1)N1CCC2(CC1)N=C(c1ccc(Cl)cc1)NO2,"inconclusive: 44.7 µM [inhibitor, partial curve, poor fit]"
8,COC1C(=O)N(c2cccc(F)c2)C12CCN(C(=O)Nc1ccccc1)CC2 (stereo not drawn),"inconclusive: 44.7 µM [inhibitor, partial curve, poor fit]"
9,COc1ccccc1CNC(=O)c1cc2n(n1)CC(c1ccc(Cl)cc1)OC2 (stereo not drawn),"inconclusive: 31.6 µM [inhibitor, full curve]"
10,COc1ccc(CN2C=C(C(=O)OCc3noc(CC4CCCCC4)n3)C(C)=NS2(=O)=O)cc1,inactive
11,COc1ccccc1CC(=O)N1CCCc2ncc(C(=O)Nc3ccc4[nH]ccc4c3)cc21,"inconclusive: 89.1 µM [inhibitor, partial curve, poor fit]"
12,COc1ccc(NC(=O)CCC2CCN(S(=O)(=O)c3ccc(C)cc3)CC2)cc1F,"inconclusive: 11.2 µM [inhibitor, partial curve, poor fit]"
13,COCC(=O)NC1CCN(Cc2cccc(-c3cccs3)c2)CC1,"inactive and inconclusive: 79.4 µM [inhibitor, partial curve]"
14,CN(C)C(=O)C1CN(Cc2ccccc2)C(=O)N1 (stereo not drawn),inactive
15,O=C(c1cc(Cl)ccc1F)N1CCN(c2cc(-c3cccs3)[nH]n2)CC1,"inconclusive: 22.4 µM [inhibitor, full curve, poor fit]"
16,O=C(c1ccc(Br)o1)N1CCCN(c2cc(-c3ccc(F)cc3)[nH]n2)CC1,"inconclusive: 50.1 µM [inhibitor, partial curve, poor fit]"
17,Cc1ccc(NC(=O)CN2C(=O)NC3(CCC(C)CC3)C2=O)cc1C (stereo not drawn),"inconclusive: 50.1 µM [inhibitor, partial curve, poor fit]"
18,Cc1ccsc1-c1nc(CN(C)Cc2noc(C(C)C)n2)c(C)o1,"inconclusive: 50.1 µM [inhibitor, partial curve, poor fit]"
19,OCC1(CC2CC2)CCCN(c2nc(-c3ccccc3)no2)C1 (stereo not drawn),"inconclusive: 50.1 µM [inhibitor, partial curve, poor fit]"
20,CC1CCCN1C(=O)c1cc(-c2ccc(C(F)(F)F)cc2)nc2c1cnn2C (stereo not drawn),"inconclusive: 50.1 µM [inhibitor, partial curve, poor fit]"
21,Cc1noc(C)c1Cn1cc2c3c(cccc31)[C@H](CC(C)C)N[C@H](C(=O)NCCN(C)C)C2,"inconclusive: 79.4 µM [inhibitor, partial curve, poor fit]"

row,SMILES,Potency
1,CCc1ccccc1S(=O)(=O)N1CCC(n2cnnc2C2CC2)CC1,"inconclusive: 56.2 µM [inhibitor, single point]"
2,O=C(Cc1cccc(F)c1)NC1CCN(c2cc(-c3ccc(F)cc3)[nH]n2)C1 (stereo not drawn),"inconclusive: 50.1 µM [inhibitor, partial curve, poor fit]"
3,Cc1noc([C@@H]2CNC[C@H]2C(=O)N(C)Cc2ccc(N3CCOCC3)cc2)n1,inactive
4,COc1ccc(-n2nc(C3CCCN(C(=O)c4ccccc4C)C3)[nH]c2=O)cc1 (stereo not drawn),inactive
5,COCCOC1CCN(C(=O)Nc2ccc(OC)cc2)CC1,inactive
6,COc1ccc(C(=O)N2CCC(N3CC4CC(C3)[C@H]3CCCC(=O)N3C4)CC2)cc1F (stereo partly drawn),inactive
7,O=C(C1CCCN(c2cnn(Cc3ccccc3)c(=O)c2)C1)N1CCN(C2CCCCC2)CC1 (stereo not drawn),"inconclusive: 44.7 µM [inhibitor, partial curve]"
8,COc1cccc(-c2nc(N3CCOCC3)cc3c2CN(C)C3=O)c1,active: 15.8 µM
9,NS(=O)(=O)c1ccc(CCNC(=O)c2cc3n(n2)CC(c2ccc(Cl)cc2)OC3)cc1 (stereo not drawn),"inconclusive: 44.7 µM [inhibitor, partial curve, poor fit]"
10,Cc1ccccc1-c1onc(C)c1C(=O)NCc1ccc(Cl)cc1,"inconclusive: 50.1 µM [inhibitor, partial curve, poor fit]"
11,CN(Cc1cn(-c2ccccc2)nn1)Cc1nccn1Cc1ccccc1,"inconclusive: 35.5 µM [inhibitor, partial curve, poor fit]"
12,O=C1NC(=NC2CCCCC2)C2(CCN(Cc3ccsc3)C2)N1c1cc(F)cc(F)c1 (stereo not drawn),"inconclusive: 7.94 µM [inhibitor, full curve, poor fit]"
13,COc1ccccc1-c1cnc(NC(=O)c2ccc(Cl)cc2)c2c1CCO2,active: 79.4 µM
14,CC1(CCCCc2ccccc2)COc2ccc(C(=O)NCCN3CCOCC3)cc2N1 (stereo not drawn),active: 79.4 µM
15,Cc1ccc([S+](=O)([O-])NC2CCN(Cc3cccc(-c4cccc(C)c4)c3)CC2)cc1,active: 15.8 µM
16,O=C(N[C@@H]1CN(C(=O)Nc2cccc(C(F)(F)F)c2)CCC[C@H]1O)c1ccc(OCc2ccccc2)cc1,active: 39.8 µM
17,Cc1nn2c(c1-c1ccccc1-c1ccccc1)N(C(=O)Cc1ccc3c(c1)OCO3)CCC2,"inconclusive: 44.7 µM [inhibitor, partial curve, poor fit]"
18,CCCN1CCN(c2ccc(C(=O)N(C)Cc3ccc4ccccc4n3)cn2)CC1,inactive
19,N#Cc1cccnc1N1CCN(Cc2ccccc2F)C(CCO)C1 (stereo not drawn),"inconclusive: 28.2 µM [inhibitor, full curve, poor fit]"
20,O=C(NC1CCCN(c2ccnc3ccnn23)C1)c1ccc(Cl)nc1 (stereo not drawn),"inconclusive: 35.5 µM [inhibitor, partial curve, poor fit]"
21,CC1(C)[C@H](Cc2cc(CN3CCCCC3)on2)C[C@@H]1NC(=O)c1ccco1,"inconclusive: 79.4 µM [inhibitor, partial curve, poor fit]"

row,SMILES,Potency
1,O=c1c2c3c(nn2ccn1Cc1cccc(C(F)(F)F)c1)CCCC3,"inconclusive: 50.1 µM [inhibitor, partial curve, poor fit]"
2,Cc1nc2cccnc2n1CC1CCCN(S(=O)(=O)c2ccc3c(c2)CCCC3)C1 (stereo not drawn),"inconclusive: 44.7 µM [inhibitor, partial curve, poor fit]"
3,COC(=O)CNC(=O)C1CCN(c2nccc(Nc3ccccc3Cl)n2)CC1,inactive
4,OC[C@@H]1CNC[C@H]1C1CCN(Cc2ccc(Cl)c(F)c2)CC1,"inconclusive: 44.7 µM [inhibitor, partial curve, poor fit]"
5,COc1nccc(N2CCC(CC(=O)N3CCCC3)CC2)n1,"inconclusive: 44.7 µM [inhibitor, partial curve, poor fit]"
6,COCCN1Cc2ccc(NCc3ccccc3)nc2C(C)(C(=O)Nc2ccc(F)cc2)C1 (stereo not drawn),"inconclusive: 31.6 µM [inhibitor, full curve, poor fit]"
7,Oc1ccccc1CN1CCC(O)(c2csc(CN3CCN(c4ccccn4)CC3)n2)CC1,"inconclusive: 89.1 µM [inhibitor, single point]"
8,Cc1ccc(Nc2ccnc(N3CCCC(C(=O)NCC(F)(F)F)C3)n2)cc1 (stereo not drawn),active: 35.5 µM
9,COc1ccc(Nc2ccc3nnc(-c4ccc(C)cn4)n3n2)cc1,"inconclusive: 50.1 µM [inhibitor, partial curve, poor fit]"
10,COc1ccc(CC(=O)N2CCCC(C(=O)N3CCC(c4ccccc4)CC3)C2)cc1 (stereo not drawn),"inconclusive: 50.1 µM [inhibitor, partial curve, poor fit]"
11,O=C(Cc1cccc(F)c1)N1CCCN(c2cc(-c3ccc(Cl)cc3)[nH]n2)CC1,"inconclusive: 28.2 µM [inhibitor, full curve, poor fit]"
12,CCc1nc(-c2c3n(c(=O)n(Cc4ccccc4F)c2=O)CCCC3)no1,"inconclusive: 50.1 µM [inhibitor, partial curve, poor fit]"
13,CCC1(N2CCN(C(=O)c3ccncc3)CC2)CCN(CCC(C)C)C1 (stereo not drawn),inactive
14,O=C(NCc1cccnc1)c1ccc2nnc(-c3cc(C(F)(F)F)cc(C(F)(F)F)c3)n2c1,inactive
15,COc1cccc(CN2CCc3c(cc(C(=O)Nc4cc(OC)cc(OC)c4)n3C)C2)c1,"inconclusive: 70.8 µM [inhibitor, single point]"
16,CCn1nccc1C(=O)Nc1cccc(-c2nnc3n2CCCC3)c1,inactive
17,COCCNC(=O)c1ccc2nnc(C3CCOCC3)n2c1,inactive
18,COc1ccccc1CNC(=O)c1noc(-c2ccc3c(c2)OCO3)n1,"inconclusive: 35.5 µM [inhibitor, partial curve, poor fit]"
19,CC[C@H]1CN(S(=O)(=O)c2ccccc2)CC[C@H]1CC(=O)NCCOC,inactive
20,COc1cccc(-c2noc(CC3CCN(C(=O)c4ccccc4C)CC3)n2)c1,"inconclusive: 44.7 µM [inhibitor, partial curve]"
21,COc1ccc(-n2c(=O)c3c(n2Cc2ccccc2)CN(Cc2nccn2C)CC3)cc1,"inconclusive: 63.1 µM [inhibitor, partial curve, poor fit]"
